Source: PubChem BioAssay AID686979 (National Center for Advancing Translational Sciences (NCATS), 2013)
Screen size: about 420,000 compounds; about 50,000 (12%) were called active. The shares of active, inactive and inconclusive entries below differ from those in the screen. The call rests on the fitted dose curve; in most records, active means well fitted inhibition curve with a large enough effect; inconclusive means small, poorly fitted or top-dose-only effect; inactive means flat fitted curve, though single readings scatter. No potency is given beside an inconclusive call; the fits are too rough.
Potency means the concentration at half of the fitted maximal effect; tags describe the fitted curve by direction and shape.

Assay: qHTS for Inhibitors of human tyrosyl-DNA phosphodiesterase 1 (TDP1): qHTS in cells in presence of CPT; further: nearly all actives have a fitted effect of over 55% in size
Settings: chicken DT40 Tdp1-/-;hTDP1 cells + 20 nM CPT, ATP luminescence, 48 h; series mostly up to 46.2 µM
Method in brief: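 Cell growth measured by CellTiter-Glo luminescence after a minimum 48 h, 37 C compound exposure with 20 nM CPT in Tdp1-knockout DT40 cells stably expressing hTDP1, seeded 400/well; qHTS titration format.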
In the case of COc1ccnc(CSC(N)=Nc2ccccc2OC)c1, the Potency is reported as inconclusive [inhibitor, single point].
With COc1ccccc1NC(=O)C(C)OC(=O)Cc1n[nH]c(=O)c2ccccc12 (stereo not drawn) the Potency was inconclusive [inhibitor, full curve, poor fit].
For COc1cccc(Nc2ncc3ncc(=O)n(C)c3n2)c1, the Potency was inconclusive [inhibitor, partial curve, poor fit].
For CCC(C)(C)NC(=O)CN(C(=O)c1csnn1)c1cccc2c1CCCC2, the Potency was inconclusive [inhibitor, single point].
In the case of CCOC(=O)n1c(=O)n(Cc2ccc(Cl)cc2Cl)c2ccccc21, the Potency is reported as inconclusive [inhibitor, partial curve, poor fit].
In the case of CCOc1ccc(N2CC(C(=O)Nc3nnc(C4CCCCC4)s3)CC2=O)cc1 (stereo not drawn), the Potency is reported as inconclusive [inhibitor, partial curve, poor fit].
With N#Cc1c(/N=C/C=C/c2ccccc2)sc2c1CCCC2 the Potency was inconclusive [inhibitor, partial curve].
In the case of CCC(C)(c1nnnn1-c1c(C)cccc1C)N(N=O)c1ccccc1Cl (stereo not drawn), the Potency is reported as inconclusive [inhibitor, single point].
In the case of CCc1cccc(OCC(=O)Nc2cc(Cl)ccc2-n2cncn2)c1, the Potency is reported as “inactive”.
For Cc1ccc(CNC(=O)c2ccc(CSCc3c(F)cccc3Cl)o2)cc1, the Potency was “inactive”.
For COc1ccc(/C=C/C(=O)OCC(=O)NC2CCCC2)cc1, the Potency was inconclusive [inhibitor, single point].
With CC1CCCC(C)N1S(=O)(=O)c1ccc(S(=O)(=O)NCc2ccccc2)cc1 (stereo not drawn) the Potency was inconclusive [inhibitor, single point].
In the case of CCCNC(=O)c1ccccc1NC(=O)c1ccc(CSc2ccccc2)cc1, the Potency is reported as inconclusive [inhibitor, single point].
For CCn1c(C(=O)NCc2ccccc2)cc2sc(Cl)cc21, the Potency was inconclusive [inhibitor, single point].
In the case of Cc1ccc(/C=C(\NC(=O)c2ccccc2)C(=O)OCc2ccccc2)cc1, the Potency is reported as inconclusive [inhibitor, single point].
With CCCN(CCC)CCNC(=O)Cn1cnc2sc(C)c(S(=O)(=O)N3CCN(c4ccccc4OC)CC3)c2c1=O the Potency was inconclusive [inhibitor, single point].
For CCn1cnc2cc(NCc3ccccc3Cl)ccc21, the Potency was inconclusive [inhibitor, partial curve].
In the case of O=C(N/N=C1\CCCc2ccccc21)c1ccc([N+](=O)[O-])cc1Cl, the Potency is reported as inconclusive [inhibitor, partial curve].
